The text below walks through data of publication PMC4336329 (PLoS ONE, 2015).

Screen size: about 310,000 compounds; about 14,000 (4.5%) showed an effect of 50% or more. Effects have a minus sign here. Some of the results follow.
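Further: peak tail current of the secondary pulse compared with the same well before compound.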

The target in this experiment is human ether-à-go-go-related gene (hERG) potassium channel (human, UniProt Q12809). Briefly: primary screen, population patch clamp on CHO cells stably expressing hERG.
human ether-à-go-go-related gene (hERG) potassium channel, sequence (Q12809 whole entry, looked up): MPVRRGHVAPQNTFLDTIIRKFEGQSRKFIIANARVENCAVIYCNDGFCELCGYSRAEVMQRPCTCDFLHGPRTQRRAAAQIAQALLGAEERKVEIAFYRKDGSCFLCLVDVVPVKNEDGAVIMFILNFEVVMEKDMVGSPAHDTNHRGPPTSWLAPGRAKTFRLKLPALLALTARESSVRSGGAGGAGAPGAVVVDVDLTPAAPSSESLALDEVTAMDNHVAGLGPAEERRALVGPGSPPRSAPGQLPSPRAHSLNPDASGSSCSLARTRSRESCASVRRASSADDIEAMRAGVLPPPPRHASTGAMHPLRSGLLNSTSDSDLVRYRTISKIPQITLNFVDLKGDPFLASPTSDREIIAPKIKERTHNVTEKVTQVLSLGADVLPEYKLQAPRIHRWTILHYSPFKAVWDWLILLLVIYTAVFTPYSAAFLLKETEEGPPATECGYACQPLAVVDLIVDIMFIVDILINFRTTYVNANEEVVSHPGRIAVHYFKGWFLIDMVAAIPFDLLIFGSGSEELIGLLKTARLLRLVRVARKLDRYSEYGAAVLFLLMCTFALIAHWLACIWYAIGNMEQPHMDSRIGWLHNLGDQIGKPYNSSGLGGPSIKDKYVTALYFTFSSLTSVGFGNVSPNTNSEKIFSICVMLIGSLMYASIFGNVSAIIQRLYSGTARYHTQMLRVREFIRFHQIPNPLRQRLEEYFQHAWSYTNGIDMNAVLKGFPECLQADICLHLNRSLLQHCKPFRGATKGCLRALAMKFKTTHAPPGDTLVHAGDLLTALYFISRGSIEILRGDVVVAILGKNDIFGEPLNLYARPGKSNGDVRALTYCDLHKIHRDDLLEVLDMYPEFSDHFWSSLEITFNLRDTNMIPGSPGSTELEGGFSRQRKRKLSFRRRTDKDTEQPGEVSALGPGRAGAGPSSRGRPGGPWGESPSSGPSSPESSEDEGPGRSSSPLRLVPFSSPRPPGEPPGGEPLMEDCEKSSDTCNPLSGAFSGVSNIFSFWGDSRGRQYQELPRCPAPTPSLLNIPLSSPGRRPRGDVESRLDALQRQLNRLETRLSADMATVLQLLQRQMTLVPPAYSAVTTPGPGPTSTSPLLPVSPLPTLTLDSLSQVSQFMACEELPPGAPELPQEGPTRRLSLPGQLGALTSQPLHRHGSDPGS
Consider `O=C(N/N=C\c1cc(Br)cs1)c1ccncc1`, for which the “hERG current change (%, negative = inhibition) at 10uM” value was -6.73%.
The figure for `COc1ccc(-n2c(Cc3cccn3C)nnc2SCC(=O)Nc2ccc(C)cc2)cc1` is -26.4%; for `O=[N+]([O-])c1ccc(-c2nc(NCc3cccnc3)c3ccccc3n2)cc1` it is 25.4%.
The figure for `Cc1cc(=O)n2nc(N3CCC(C(=O)NCc4ccccc4F)CC3)sc2n1` is -6.89%; for `Cc1nn(C(C)C(=O)O)c(=O)c2ccccc12` (stereo not drawn) it is 26.3%.
For the compound `CCOC(=O)c1c(NC(=O)CSc2ccccc2C(=O)O)sc(C)c1C`, the “hERG current change (%, negative = inhibition) at 10uM” value amounted to 13.3%.
The figure for `O=C(CN1CCCc2ccccc21)Nc1cc(S(=O)(=O)N2CCCC2)ccc1Cl` is -22.8%; for `Cn1cc([N+](=O)[O-])c(C(=O)n2cccn2)n1` it is 10.4%.
Take `Cc1nnsc1Sc1ccccc1`: the “hERG current change (%, negative = inhibition) at 10uM” value was determined as 1.85%.
Under `COc1cc(SC)ccc1C(=O)Nc1ccc2ncccc2c1` stands -8.23%.
The figure for `CCCCC(CC(O)COCC(C)C)C(=O)NN` (stereo not drawn) is 13.2%.
With `C[C@H](NC(=O)c1ccco1)C(=O)NC1CCCCCC1`, the “hERG current change (%, negative = inhibition) at 10uM” value was -0.515%.
Under `Cc1ccc(C)c(N(C(=O)CNC(=O)c2ccco2)C(C(=O)NC2CCCCC2)c2cccnc2)c1` (stereo not drawn) stands 15.3%; under `COc1cc(C#N)ccc1OCC(=O)N1CCc2ccccc2C1`, -39%; under `Cn1cc2c(=O)n(/N=C/c3ccccc3)cnc2n1`, -13.2%.
Under `CCOC(=O)C1CCN(S(=O)(=O)c2ccc(OC)c(OC)c2)CC1` stands -13.9%; under `O=C1CCc2cc(S(=O)(=O)N3CCCC3C(=O)N3CCN(c4ccccc4)CC3)ccc2N1` (stereo not drawn), -34.4%.
The figure for `O=C(Nc1ccccc1)NC1(C(=O)NCc2ccco2)CCCCC1` is 15.5%; for `CC(C)C(C(=O)Nc1cccnc1)N1C(=O)c2ccccc2C1=O` (stereo not drawn) it is -7.01%.
Take `NS(=O)(=O)c1ccc2nc(NC(=O)c3ccncc3)sc2c1`: the “hERG current change (%, negative = inhibition) at 10uM” value was determined as 13.9%.
Under `COc1ccc(OC)c(NS(=O)(=O)c2ccc(NC(C)=O)cc2)c1` stands 1.96%; under `Cc1cc(C(=O)OCC(=O)c2c(N)n(C)c(=O)n(C)c2=O)c(C)n1-c1ccccc1`, 6.1%; under `COc1cc(OC)cc(C(=O)N/N=C/c2ccc(OC)c(COc3ccc(F)cc3)c2)c1`, 6.62%.
Under `Cc1c(N=C/C=C/c2ccccc2)cnn1C` stands -12.8%; under `O=C(Nc1nc(-c2cc(F)ccc2F)cs1)C1=NN(c2ccccc2)C(=O)CC1`, 8.68%; under `CC1(C)NC(=O)N(CC(O)COc2ccccc2C(=O)Nc2ccccc2)C1=O` (stereo not drawn), -6.2%.
`CCC(C)N=CC1=C(O)C(C(=O)OC)C(C)(C)CC1=O` (stereo not drawn): the “hERG current change (%, negative = inhibition) at 10uM” value was -5.35%.
The figure for `COc1ccccc1C(=O)NC(CCSC)C(=O)NCC(c1cccs1)N1CCOCC1` (stereo not drawn) is -24.3%.
Under `CC(C)(O)C#CC#CCN1CCOCC1` stands 3.98%.
Under `CCc1nc2ccc(Br)cc2c(=O)n1-c1ccccc1C(F)(F)F` stands -0.781%.
Turning to `NC(=O)COc1ccccc1C(=O)O`, the “hERG current change (%, negative = inhibition) at 10uM” value stood at 23.5%.
The figure for `Cc1cc(C)n(-c2nnc(NC34CC5CC(CC(C5)C3)C4)nn2)n1` is 4.94%; for `CC(C)C[C@@H](CN=[N+]=[N-])N1CCN(CC(C)C)CCC1=O` it is -3.55%; for `Cc1cccc(OCCC(=O)Nc2ccc(Cl)cc2F)c1` it is 7.13%.
`Cc1cc(C)n2nc(C(=O)Nc3ccc(S(=O)(=O)N(C)C)cc3)nc2n1`: the “hERG current change (%, negative = inhibition) at 10uM” value is -2.93%.
Under `Cc1cccc(OCc2nc(C#N)c(NCc3ccc4c(c3)OCO4)o2)c1` stands -2.03%; under `O=C(CCCCCN1C(=O)C2C3C=CC(C3)C2C1=O)Nc1nccs1` (stereo not drawn), -4.56%; under `CCn1cc[n+](C)c1P(c1ccccc1)c1ccccc1.F[B-](F)(F)F`, -5.84%.
The figure for `COc1ccc(CCNC(=O)CCc2ccc(S(=O)(=O)NC(C)C)cc2)cc1OC` is -2.35%; for `COc1ccc(N2CCN(c3nc4c(c(=O)[nH]c(=O)n4C)n3Cc3cccc(C)c3)CC2)cc1` it is -14.2%; for `Cc1ccc2c(c1)C1CN(C)CCC1N2S(=O)(=O)c1cccc(C(F)(F)F)c1` (stereo not drawn) it is -40.1%.
Under `c1ccc(-c2noc(CN3CCN(c4cnccn4)CC3)n2)cc1` stands -45.4%; under `O=C(CN1C(=O)NC2(CCc3ccccc32)C1=O)Nc1ccccc1OC(F)F` (stereo not drawn), 11.8%; under `COc1cccc(/C=N/NC(=O)c2cnccn2)c1`, 3.35%.
Turning to `CC1(C)CC2CC(C)(CN2S(=O)(=O)c2cccc(C(=O)O)c2)C1` (stereo not drawn), the “hERG current change (%, negative = inhibition) at 10uM” value was -7.22%.
Regarding `CN(C)c1ccc(C(C(=O)NC2CCCC2)N(Cc2cccnc2)C(=O)c2snc(C(N)=O)c2N)cc1` (stereo not drawn), the “hERG current change (%, negative = inhibition) at 10uM” value is on record as -10.7%.
Under `CCc1cc(=O)oc2c(CN3CCN(C)CC3)c(O)c(Cl)cc12` stands -1.57%; under `O=C(COC(=O)/C=C/c1ccc(Br)o1)NCCCN1CCCC1=O`, -16.8%; under `CCC(C)(C(=O)NC1CCCC1)N(C)C(=O)Cc1c[nH]c2ccccc12` (stereo not drawn), 2.1%.
Under `COC(=O)c1ccccc1NC(=O)CN1C(=O)c2ccccc2C1=O` stands 2.69%; under `CCOc1ccc(S(=O)(=O)NCCC(=O)NCc2ccco2)cc1`, -0.369%; under `COc1ccc(-c2nn(C)c(=O)c3ccccc23)cc1CNS(C)(=O)=O`, -4.38%.
Under `C=C(C)CN(CC)C(=O)Cn1cnc2c(oc3ccccc32)c1=O` stands 0.0911%; under `CCN1C(=O)C(CC(=O)Nc2ccc(Cl)cc2)N(NC(=O)c2ccncc2)C1=S` (stereo not drawn), 7.98%.
On to `O=C(C1CCCCC1)N1CCN(c2ccccc2F)CC1`, for which the “hERG current change (%, negative = inhibition) at 10uM” value was -7.04%.
Under `CCOC(=O)N1CCN(c2c(-c3ccc(C)c(C)c3)c(=O)c2=O)CC1` stands -2.4%.
The figure for `COc1cccc(NC(=O)c2cc(CN3C(=O)c4ccccc4C3=O)ccc2OC)c1` is -7.23%; for `Cc1cccc(NC(=O)N(Cc2cc3cc(C)ccc3[nH]c2=O)CC2COCCO2)c1` (stereo not drawn) it is 6.43%; for `CCc1ccc(-c2c(C)sc(NC(=O)C3CCC3)c2C#N)cc1` it is 15.9%.
Under `O=C(O)C1CCCCC1C(=O)Nc1ccc(-c2ccccc2)cc1` (stereo not drawn) stands 8.19%; under `COc1cc2c(cc1OC)C(C(=O)NCC1COc3ccccc3O1)C(c1cccnc1)N(C)C2=O` (stereo not drawn), -12.6%; under `CC1Cc2ccccc2N1Cc1cccc([N+](=O)[O-])c1` (stereo not drawn), 13%.
For `CCn1cc(CN2CCCC(CNC(=O)COc3ccccc3OC)C2)c(C)n1` (stereo not drawn), the “hERG current change (%, negative = inhibition) at 10uM” value is given as 4.58%.
Turning to `CC(=O)C1=C(O)C(=O)N(CC#N)C1c1cccs1` (stereo not drawn), the “hERG current change (%, negative = inhibition) at 10uM” value worked out at 21%.
Regarding `O=C(c1cc(Br)ccc1Cl)N1CCC2(CC1)OCCO2`, the “hERG current change (%, negative = inhibition) at 10uM” value is recorded as -11.4%.
Take `O=C(CN1C(=O)c2ccccc2C1=O)OCc1nc2ccsc2c(=O)[nH]1`: the “hERG current change (%, negative = inhibition) at 10uM” value stood at 8.55%.
The figure for `COc1ccc(C2=NN(C(=O)CCC(=O)O)C(c3cccs3)C2)cc1` (stereo not drawn) is 9.91%; for `Cc1nc2scc(-c3cccs3)c2c(=O)o1` it is 6%; for `Cc1cccnc1NC(=O)/C=C/c1ccc2c(c1)OCO2` it is -2.88%.
On to `Cc1cc(C)cc(OC(=O)CCN2C(=O)C3C4C=CC(C5CC45)C3C2=O)c1` (stereo not drawn), for which the “hERG current change (%, negative = inhibition) at 10uM” value was -10.2%.
On to `Cn1c(SCC(=O)N2CCCC2=O)nnc1-c1ccccc1F`, for which the “hERG current change (%, negative = inhibition) at 10uM” value came out at 9.56%.
Regarding `FC(F)C(F)(F)C1=CC(c2ccccc2)=NCCN1`, the “hERG current change (%, negative = inhibition) at 10uM” value is on record as -24.4%.
On to `O=S(=O)(NCc1ccco1)N1CCCCCC1`, for which the “hERG current change (%, negative = inhibition) at 10uM” value was 9.74%.
Under `Cc1ccc(C)c(N2CCN(CCCNC(=O)CCC(=O)N3CCOc4ccc(Cl)cc43)CC2)c1` stands -55.9%.
Under `CCCCC(=O)N1CCN(c2ccc(OC)cc2[N+](=O)[O-])CC1` stands -64.5%; under `Cc1ccc(OCC(=O)N2CCCC(CO)(CCOc3ccccc3)C2)cc1` (stereo not drawn), -30.4%.
The figure for `O=C(COc1ccc2c3c(c(=O)oc2c1)CCC3)Nc1ccccn1` is 12.2%.
For `O=C(O)c1cc([N+](=O)[O-])ccc1NCCc1ccccc1`, the “hERG current change (%, negative = inhibition) at 10uM” value is reported as 14.4%.
Under `O=C(O)C(=O)O.O=S(=O)(c1ccc(F)cc1)N1CCC(N2CCCC2)CC1` stands -15%; under `O=C1C=CCC(/C=C/c2ccccc2)O1` (stereo not drawn), 13.3%; under `COc1ccccc1CNC(=O)CCN1C(=O)c2ccccc2C1=O`, 12.3%.
The figure for `Cc1nn(CC(=O)NCC2CCCO2)c(C)c1[N+](=O)[O-]` (stereo not drawn) is 33%; for `Cc1nn(Cc2ccccc2)c2c1C(c1cccnc1)C(C#N)=C(N)O2` (stereo not drawn) it is 3.79%; for `Cc1cccc(C)c1NC(=S)/C(=C(\[O-])c1cccs1)[n+]1ccccc1` it is -18.8%.
The figure for `O=C(O)c1ccc(-n2nnnc2SCc2ccccc2F)cc1` is 19.3%; for `O=C(OCC(=O)N1CCN(c2ccccc2)CC1)c1ccc(Cl)cc1[N+](=O)[O-]` it is -63.6%.
`Cc1nn(CC(=O)NC2CCC(C)CC2)c(C)c1[N+](=O)[O-]` (stereo not drawn): the “hERG current change (%, negative = inhibition) at 10uM” value was -15.9%.
The figure for `CC(=O)c1cccc(NC(=O)C2C3C=CC(C3)C2C(=O)O)c1` (stereo not drawn) is 23.1%; for `c1ccc(-c2nc3c([nH]2)CCc2nonc2-3)cc1` it is 28.8%.
The figure for `Cc1ccc(C)c(C(C)NC(=O)C2C3CCC(O3)C2C(=O)O)c1` (stereo not drawn) is -6.85%.
